Data from the supplement of paper PMC6089552.
Hit rate of the full screen: of about 3,200 compounds, about 300 (9.4%) showed activity. The entries are a selection whose mix differs from that of the whole data set.

System: A673/TR/shEF
Experiment: cell viability (LOESS-normalised, relative to median of negative controls) (log2 ratio); higher = more viable cells (less compound effect), active = hit call of the paper (over 3 MAD below the median)
Conditions: treatment time: 72 h
Summary of the method: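 Doxycycline, present or absent from 24 h before compounds, was used to induce EWS-FLI1 shRNA knockdown in A673/TR/shEF Ewing sarcoma cells at 1,500 per well in 384-well plates. Cells then received library compounds at two or more concentrations, or DMSO controls, for three days. Viability was measured by CellTiter-Glo luminescence on an Envision reader, and per-plate LOESS correction, division by the negative-control median and log2 transformation followed.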

[1] = 0.25 µM, library screen: screen1, EWS-FLI1 expression: high (no doxycycline)
[2] = 0.25 µM, library screen: screen1, EWS-FLI1 expression: low (doxycycline-induced shRNA knockdown)
[3] = 2.5 µM, library screen: screen1, EWS-FLI1 expression: high (no doxycycline)
[4] = 2.5 µM, library screen: screen1, EWS-FLI1 expression: low (doxycycline-induced shRNA knockdown)
[5] = 0.25 µM, library screen: screen2, EWS-FLI1 expression: high (no doxycycline)
[6] = 0.25 µM, library screen: screen2, EWS-FLI1 expression: low (doxycycline-induced shRNA knockdown)
[7] = 2.5 µM, library screen: screen2, EWS-FLI1 expression: high (no doxycycline)
[8] = 2.5 µM, library screen: screen2, EWS-FLI1 expression: low (doxycycline-induced shRNA knockdown)
[9] = 0.025 µM, library screen: screen2, EWS-FLI1 expression: high (no doxycycline)
[10] = 0.025 µM, library screen: screen2, EWS-FLI1 expression: low (doxycycline-induced shRNA knockdown)
[11] = 25 µM, library screen: screen2, EWS-FLI1 expression: high (no doxycycline)
[12] = 25 µM, library screen: screen2, EWS-FLI1 expression: low (doxycycline-induced shRNA knockdown)

Measured: cell viability (log2)

O=C(O)c1cc(O)ccc1O
inactive: [1] 0.00691 | [2] 0.0897 | [3] 0.0219 | [4] 0.0883

CC(C)C(=O)c1c(C(C)C)nn2ccccc12
inactive: [5] 0.148 | [6] 0.057 | [7] 0.134 | [8] 0.0577

Nc1ncnc2c1ncn2[C@@H]1O[C@@H]2COP(=O)(O)O[C@H]2[C@H]1O
inactive: [5] 0.0121 | [6] 0.115 | [7] 0.106 | [8] 0.0477

C[C@H]1[C@H]2CC[C@H]3[C@@H]4CC=C5C[C@@H](N(C)C)CC[C@]5(C)[C@H]4CC[C@]23CN1C
inactive: [9] 0.131 | [10] -0.0144 | [1] 0.0254 | [2] 0.0832 | [5] 0.0989 | [6] -0.00762 | [3] 0.0975 | [4] 0.201 | [7] 0.117 | [8] 0.0699 | [11] 0.0599 | [12] 0.0252

O=C(O[C@@H]1Cc2c(O)cc(O)cc2O[C@@H]1c1cc(O)c(O)c(O)c1-c1c([C@H]2Oc3cc(O)cc(O)c3C[C@H]2OC(=O)c2cc(O)c(O)c(O)c2)cc(O)c(O)c1O)c1cc(O)c(O)c(O)c1
inactive: [1] 0.0884 | [2] -0.013 | [3] 0.1 | [4] 0.103

CCOC(=O)c1c[nH]c2c(Cl)c(Cl)ccc2c1=O
inactive: [1] 0.0772 | [2] 0.122 | [3] 0.11 | [4] 0.176

CC(C)NCC(O)COc1cccc2[nH]ccc12 (configuration not stated)
inactive: [1] 0.0936 | [2] 0.112 | [5] 0.117 | [6] 0.0869 | [3] 0.137 | [4] 0.225 | [7] 0.00803 | [8] 0.0539

CC(C)=CCC[C@@H](C)[C@@H]1CC[C@]2(C)C3=C(CC[C@@]12C)[C@@]1(C)CC[C@H](O)C(C)(C)[C@@H]1CC3
inactive: [1] 0.0545 | [2] -0.00304 | [3] 0.1 | [4] -0.212

OC(CCN1CCCC1)(c1ccccc1)C1CCCCC1 (configuration not stated)
inactive: [1] 0.0816 | [2] 0.0476 | [3] 0.162 | [4] 0.114

CC1=C(Cl)C(O)=C(Cl)C(=O)C12Oc1cc(O)c(Cl)c(C)c1C2=O (configuration not stated)
inactive: [1] 0.065 | [2] 0.0174 | [3] 0.111 | [4] 0.157

CC(CN(C)C)CN1c2ccccc2CCc2ccccc21 (configuration not stated)
inactive: [1] 0.0773 | [2] 0.155 | [5] 0.0969 | [6] 0.0492 | [3] 0.142 | [4] 0.131 | [7] 0.155 | [8] 0.129

COC(=O)[C@H]1[C@H]2C[C@H]3c4[nH]c5ccccc5c4CCN3C[C@H]2CC[C@@H]1O
inactive: [1] 0.0883 | [2] 0.115 | [5] 0.0984 | [6] 0.0351 | [3] 0.105 | [4] 0.043 | [7] 0.121 | [8] 0.0741

C#C[C@]1(O)CC[C@H]2[C@@H]3CCC4=Cc5oncc5C[C@]4(C)[C@H]3CC[C@@]21C
inactive: [1] 0.0524 | [2] 0.136 | [5] 0.115 | [6] 0.123 | [3] 0.0714 | [4] 0.22 | [7] 0.0956 | [8] 0.0512

Cc1cccc(-c2nn3c(c2-c2ccnc4ccc(C(N)=O)cc24)CCC3)n1
inactive: 0.103 µM, library screen: screen3, EWS-FLI1 expression: high (no doxycycline) 0.0571 | 0.103 µM, library screen: screen3, EWS-FLI1 expression: low (doxycycline-induced shRNA knockdown) -0.0167 | 0.308 µM, library screen: screen3, EWS-FLI1 expression: high (no doxycycline) 0.0796 | 0.308 µM, library screen: screen3, EWS-FLI1 expression: low (doxycycline-induced shRNA knockdown) -0.0106 | 0.926 µM, library screen: screen3, EWS-FLI1 expression: high (no doxycycline) -0.0323 | 0.926 µM, library screen: screen3, EWS-FLI1 expression: low (doxycycline-induced shRNA knockdown) 0.0532 | 2.8 µM, library screen: screen3, EWS-FLI1 expression: high (no doxycycline) -0.00816 | 2.8 µM, library screen: screen3, EWS-FLI1 expression: low (doxycycline-induced shRNA knockdown) -0.0468 | 8.3 µM, library screen: screen3, EWS-FLI1 expression: high (no doxycycline) -0.0341 | 8.3 µM, library screen: screen3, EWS-FLI1 expression: low (doxycycline-induced shRNA knockdown) 0.0453 | 25 µM, library screen: screen3, EWS-FLI1 expression: high (no doxycycline) -0.0652 | 25 µM, library screen: screen3, EWS-FLI1 expression: low (doxycycline-induced shRNA knockdown) 0.0398

COc1ccc(NC(=O)/C(=C/c2cccnc2)NC(=O)c2cccs2)cc1
inactive: [1] 0.123 | [2] 0.163 | [3] 0.1 | [4] 0.101

COc1ccc2c(c1)OC[C@@H](Cc1ccc(OC)c(OC)c1)C2=O
inactive: [1] -0.018 | [2] 0.0264 | [3] 0.11 | [4] 0.0741

O=C(Nc1ccc([N+](=O)[O-])cc1Cl)c1cc(Cl)ccc1O
inactive: [9] 0.126 | [10] -0.00156 | [1] 0.0925 | [2] 0.127 | [5] 0.121 | [6] 0.0336 | [3] 0.154 | [4] 0.0824 | [7] 0.147 | [8] 0.0985 | [11] 0.1 | [12] 0.0854

O=C(O)c1ccc(O)c2c1C(=O)c1cc(O)cc(O)c1C2=O
inactive: [1] 0.0473 | [2] -0.0191 | [3] 0.0745 | [4] 0.0247
